PubChem BioAssay (NCI)
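Assay format: 96-well plates, 48-hour exposure. The concentration for 50% growth inhibition is given as GI50. TGI: concentration producing complete growth inhibition.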 Peptide text beside a SMILES is read from it. * marks the point of attachment. X33 = O=C(c1ccc(-c2ccc(Cl)cc2Cl)o1)*

System: NCI-H322M lung
Experiment: NCI tumour cell line growth inhibition, 48 h

SMILES	TGI	GI50
CN/N=C(\C)C(CN1CCCCC1)C(C1=C(O)c2ccccc2OC1)c1ccccc1 (configuration not stated)	> 100 µM	–
CC(C)CNCCc1ccccn1	> 100 µM	–
CO/C=C(\Br)c1ccc2c(c1)OCO2	> 100 µM	–
COc1cc2c(c(OC)c1OC)-c1c(c3ccc([N+](=O)[O-])cc3c(=O)n1CCCBr)C2=O	> 100 µM	12.5 µM
COc1ccc(N/N=C/C2=CC(C)(C)C(C#N)(C#N)C(O)=C2C#N)cc1	> 100 µM	–
COc1ccccc1NC(=O)CC(=O)n1nc(C)c(N=Nc2ccccc2Cl)c1C	> 100 µM	–
CCOC(=O)C(NC(=O)c1cccc(Cl)c1)(Nc1ccc(S(=O)(=O)Nc2cc(C)nc(C)n2)cc1)C(F)(F)F (configuration not stated)	> 100 µM	–
O=S1(=O)c2ccccc2N2C(c3ccccc3)=NOC2(c2ccccc2)CC1c1ccc(Br)cc1 (configuration not stated)	> 100 µM	–
Brc1ccc(C=NC23CC4CC(CC(C4)C2)C3)cc1	> 100 µM	–
CC(=O)OCC1=CC2OC(=O)C3=COC(OC4OC(CO)C(O)C(O)C4O)C1C32 (configuration not stated)	> 100 µM	–
Nc1ccn(CCOC(c2ccccc2)P(=O)(O)O)c(=O)n1 (configuration not stated)	> 100 µM	–
C=CCCCN1CCCCC1=S	> 100 µM	–
N#Cc1sc2c(c1OC(=O)c1ccc(Cl)cc1Cl)c(=O)n(-c1ccccc1)c(=S)n2-c1ccccc1	> 100 µM	–
CC(=O)NCc1c(C(N)=O)ncn1Cc1ccccc1	> 100 µM	–
COc1ccc([Se][Se]c2ccc(OC)cc2OC)c(OC)c1	> 100 µM	–
CC[C@]1(Cc2ccc(OC)c(OC)c2)C2CC(C(=O)OC)ON2O[C@H](OCc2ccccc2)[C@@H]1OC(C)=O (some centres not stated)	> 100 µM	–
COc1ccc(-c2cc(=O)c3cc(C)c(C)c(C(=O)O)c3o2)cc1	> 100 µM	–
COc1ccc2c(=O)c3c([nH]c2c1)OCC3=O	> 100 µM	–
COn1oc(=O)c2ccccc21	> 100 µM	–
CC(=O)OC1=C2CC[C@@H]3C(CC[C@@]4(C)C3CC[C@@H]4OC(C)=O)[C@@]2(C)CC(C#N)C1=O (some centres not stated)	> 100 µM	–
C/C(CC(C)(C)N1CC1)=N\NC(=O)Nc1cccc2ccccc12	18.2 µM	4.46 µM
CCCCc1nc(C)oc1C(C)C	> 100 µM	–
CC1OC(CC(=O)O)Cc2c1c(O)c1c(O)cc(-c3cc(=O)c4c(=O)c5c(c(=O)c=4c3=O)CC(CC(=O)O)OC5C)c(O)c1c2O (configuration not stated)	> 100 µM	40.2 µM
CC1(C)CCc2c(c(N=Nc3ccccc3F)c3ccccc3c2O)O1	88.3 µM	27.1 µM
O=C1/C(=C/c2ccc(F)cc2)CN(C(=O)C(Cl)Cl)C/C1=C\c1ccc(F)cc1	2.02 µM	0.755 µM
O=c1oc2cc(O)ccc2c2oc3cc(O)ccc3c12	> 85.5 µM	–

SMILES	TGI	GI50
C#Cc1cccc(NC(=O)c2cccc(NC(=O)CCl)c2)c1	> 82.5 µM	71.4 µM
CN=C1CN=C(OP(=O)(N2CCOCC2)N2CCOCC2)c2cc(Cl)ccc2N1	> 100 µM	–
Cc1cn(C2CC(N=[N+]=[N-])C(CO)O2)c(=O)n(CCCCBr)c1=O (configuration not stated)	> 100 µM	–
CNS(=O)(=O)NNS(=O)(=O)c1ccc(F)cc1	> 100 µM	–
Cc1c(C(=O)Nc2ccccc2)nnn1-c1ccnc2cc(C(F)(F)F)ccc12	> 100 µM	–
CC(=O)Nc1ccc(OC(C)=O)cc1	> 100 µM	0.229 µM
FC(F)(F)c1nc(SCc2ccc(Cl)cc2)n[nH]1	> 100 µM	–
CN(C)c1ccc(C2CC(=O)CC(c3ccc(N(C)C)cc3)C23C(=O)NC(=S)NC3=O)cc1 (configuration not stated)	> 100 µM	–
O=C(Nc1ccccc1)c1cc(S(=O)(=O)N2CCNC2=O)c(S)cc1Cl	> 100 µM	–
N#Cc1ccc(OCCSCCCCCCCCCCSCCOc2ccc(C#N)cc2)cc1	> 100 µM	–
O=C1c2ccccc2C(=O)c2c1oc1c2c(=O)[nH]c2ccc(Cl)cc21	1.43 µM	0.324 µM
COc1ccc(-c2cc(=O)c3cc(Cl)ccc3[nH]2)cc1	> 100 µM	–
CCOC(=O)Nc1ccc2c(c1)C(=O)N(CC)c1ccccc1O2	> 100 µM	0.258 µM
CCOC(=O)c1c2c(n3ccc(NC(=O)CCN4CCCCC4)cc13)C(=O)c1ncccc1C2=O	2.54 µM	1.11 µM
O=C1c2cc3c(cc2-c2c1c1ccc(F)cc1c(=O)n2C[C@H](O)[C@H](O)[C@H](O)CO)OCO3	> 100 µM	0.258 µM
Cc1[nH]c2ccccc2c1C1=NO/C(=N\O)C(c2c(C)[nH]c3ccccc23)C1 (configuration not stated)	> 100 µM	–
CSc1ccc2c(cc1=O)C(NC(=O)c1ccccc1)CCc1cc(O)c(O)c(O)c1-2 (configuration not stated)	53.5 µM	–
COC(=O)C(CC(C)C)NC(=O)C(Cc1ccccc1)NC(=O)C1CCCN1C(=O)C(CO)NC(=O)c1ccc(-c2ccc(Cl)cc2Cl)o1 (configuration not stated) (X33-SPFL-OMe; configuration not given here)	38.2 µM	–
O=C(Nc1n[nH]c2nc(-c3ccc(O)cc3)c(Br)cc12)C1CC1	19.3 µM	5.54 µM
N#Cc1ccc([N+](=O)[O-])cc1NC(N)=S	> 100 µM	–
C#CC(C)(C)OCCCCOc1cc(O)c2c(=O)c3ccccc3n(C)c2c1	> 100 µM	–
O=C(O)CCSC(=O)Nc1cccc2ccccc12	> 100 µM	–
O=C(CC1(O)C(=O)Nc2ccccc21)c1ccc(Cl)cc1Cl (configuration not stated)	> 100 µM	–
CC1=C2[C@@H](CC1)[C@]1(C)O[C@@](C(C)C)(C[C@H]1OC(=O)CO)[C@H]2OC(=O)CCCc1ccccc1	24 µM	11.8 µM
CCOC(=O)C(NC(=O)c1ccccc1)(c1ccc(S(=O)(=O)Nc2onc(C)c2C)cc1)C(F)(F)F (configuration not stated)	> 100 µM	–
COc1ccc(C(=O)c2nc3ccccc3nc2N2CCN(c3ccccc3)CC2)cc1OC	> 100 µM	–

SMILES	TGI	GI50
COc1ccccc1/C=N/Nc1nnc2c3ccccc3c3ncccc3c2n1	> 100 µM	–
COC(=O)[C@@H]1C[C@]2(Br)c3ccccc3N(S(=O)(=O)c3ccccc3)[C@@H]2N1C(=O)OC	> 100 µM	–
OCCN(CCO)c1nc(N2CCCCC2)c2nc(N(CCO)CCO)nc(N3CCCCC3)c2n1	> 100 µM	–
COc1ccc2nc3c(cc2c1)C(=O)CC(c1ccccc1)C3 (configuration not stated)	> 100 µM	9.03 µM
COc1cc2c3c(n(CCCn4cncn4)c(=O)c2cc1OC)-c1cc2c(cc1C3=O)OCO2	> 100 µM	> 64.9 µM
CN(CCNC(=O)c1nn(-c2ccc(Cl)cc2Cl)c2c1Cc1ccccc1-2)CCNC(=O)c1nn(-c2ccc(Cl)cc2Cl)c2c1Cc1ccccc1-2	> 100 µM	–
CN(C)/C=C/c1c2c(nc3ccccc13)C(=O)c1cccnc1C2=O	1.87 µM	–
CCN(CCO)CCCC(C)Nc1ccnc2cc(Cl)ccc12 (configuration not stated)	> 100 µM	> 100 µM
C=CCOc1ccc(N)c([N+](=O)[O-])c1	> 100 µM	–
O=C(Nc1cccc(C(F)(F)F)c1)c1ccc(NC2=C(Cl)C(=O)N(Cc3ccccc3)C2=O)cc1	30.4 µM	14.7 µM
C/C(=C\C(C[C@](C)(O)C(O)CCC#C[Si](C)(C)C)S(=O)(=O)c1ccccc1)CC/C=C/CO[Si](C)(C)C(C)(C)C (some centres not stated)	32.8 µM	–
CS(=O)(=O)NNS(=O)(=O)c1ccc(F)cc1	> 100 µM	–
CCOC(=O)c1c(-c2ccc(OC)c(O)c2)c(C#N)c(=S)n(C2OC(COC(C)=O)C(OC(C)=O)C(OC(C)=O)C2OC(C)=O)c1-c1ccccc1 (configuration not stated)	> 100 µM	–
C1C[OH+]CCNCC[OH+]CC[OH+]CCN1.N.[Cl-].[Pt+4]	> 100 µM	52.8 µM
C=CCc1cccc2cc(C(=O)Nc3ccc(C)cc3)c(=N)oc12	> 100 µM	–
COC(=O)c1sc2c(=O)c(C(=O)OC)c(C(=O)OC)sc2c(=O)c1C(=O)OC	> 100 µM	–
CC(=O)OC12CC[N+]3(C)CCCCC3C1=Nc1ccccc12 (configuration not stated)	> 100 µM	–
O=[N+]([O-])c1cccc(C2=NN(c3ccccc3)C3c4ccccc4OCC23)c1 (configuration not stated)	> 100 µM	–
CN1N=C2c3ccccc3OC(c3ccccc3)[C@H]2C1c1ccccc1 (some centres not stated)	> 100 µM	–
Nc1nc(SCCNC(=O)CCc2ccc(O)c(I)c2)nc2c1ncn2C1OC(CO)C(O)C1O (configuration not stated)	> 100 µM	–
Cc1ccc2nc(CN(CCO)CCO)cc(=O)n2c1	> 100 µM	–
CSc1nc(NC2OCC(OC(C)=O)C(OC(C)=O)C2OC(C)=O)c2c(n1)OCC2=O (configuration not stated)	> 100 µM	–
CC(=O)C1C(=O)C(C(C)=O)C2C3C=CC(C3)C12 (configuration not stated)	> 100 µM	–
CN/N=C(\C(=O)Nc1ccc(C(F)(F)F)cc1[N+](=O)[O-])C(c1cnc2ccc([N+](=O)[O-])cc2n1)[N+](=O)[O-] (configuration not stated)	> 100 µM	–
O=C1NC(=NCc2ccc(F)cc2)N/C1=C\c1ccccc1Cl	36.2 µM	–
CCCCC(OC(=O)c1ccc(N)cc1)C(=O)Nc1nc(CC(=O)OCC)cs1 (configuration not stated)	> 100 µM	60.3 µM
